# In the supplement of paper PMC8728848:
# This is one part of the list.
# Tests used:
# Test in all cases: glycan array binding signal (z-score within array); higher = stronger binding
# Settings in all cases: glycan notation: IUPAC condensed, linker removed
# [1] = target: Gal(b1-3)GlcNAc6S
# Summary of the method: (§1)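 Columns mapping to the same glycan were averaged after glycan names were converted to IUPAC-condensed notation. The data come from 3228 arrays in the Consortium for Functional Glycomics database, limited to those with an available protein sequence. Binding is reported as a within-array Z-score averaged across arrays of one protein sequence and across linkers.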
# [2] = target: Gal(b1-3)[Fuc(a1-4)]GlcNAc
# Summary of the method: as §1
# [3] = target: Gal(b1-3)[Fuc(a1-4)]GlcNAc(b1-2)Man
# Summary of the method: as §1
# [4] = target: Gal(b1-3)[Fuc(a1-4)]GlcNAc(b1-2)Man(a1-3)[Gal(b1-3)[Fuc(a1-4)]GlcNAc(b1-2)Man(a1-6)]Man(b1-4)GlcNAc(b1-4)[Fuc(a1-6)]GlcNAc
# Summary of the method: as §1
# [5] = target: Gal(b1-3)[Fuc(a1-4)]GlcNAc(b1-3)Gal(b1-3)[Fuc(a1-4)]GlcNAc
# Summary of the method: as §1
# [6] = target: Gal(b1-3)[Fuc(a1-4)]GlcNAc(b1-3)Gal(b1-4)GlcNAc
# Summary of the method: as §1
# [7] = target: Gal(b1-3)[Fuc(a1-4)]GlcNAc(b1-3)Gal(b1-4)[Fuc(a1-3)]GlcNAc
# Summary of the method: as §1
# [8] = target: Gal(b1-3)[Fuc(a1-4)]GlcNAc(b1-6)GalNAc
# Summary of the method: as §1
# [9] = target: Gal(b1-3)[GlcNAc(b1-6)]GalNAc
# Summary of the method: as §1
# [10] = target: Gal(b1-3)[Neu5Ac(a2-6)]GalNAc
# Summary of the method: as §1
# [11] = target: Gal(b1-3)[Neu5Ac(a2-6)]GlcNAc(b1-4)Gal(b1-4)Glc
# Summary of the method: as §1
# [12] = target: Gal(b1-3)[Neu5Ac(b2-6)]GalNAc
# Summary of the method: as §1
# [13] = target: Gal(b1-4)Gal
# Summary of the method: as §1
# [14] = target: Gal(b1-4)GalNAc(a1-3)[Fuc(a1-2)]Gal(b1-4)GlcNAc
# Summary of the method: as §1
# [15] = target: Gal(b1-4)GalNAc(b1-3)[Fuc(a1-2)]Gal(b1-4)GlcNAc
# Summary of the method: as §1
# [16] = target: Gal(b1-4)Glc
# Summary of the method: as §1
# [17] = target: Gal(b1-4)Glc6S
# Summary of the method: as §1
# [18] = target: Gal(b1-4)GlcNAc
# Summary of the method: as §1
# [19] = target: Gal(b1-4)GlcNAc(a1-6)Gal(b1-4)GlcNAc
# Summary of the method: as §1
# [20] = target: Gal(b1-4)GlcNAc(b1-2)Man
# Summary of the method: as §1
# [21] = target: Gal(b1-4)GlcNAc(b1-2)Man(a1-3)Man(b1-4)GlcNAc(b1-4)GlcNAc
# Summary of the method: as §1
# [22] = target: Gal(b1-4)GlcNAc(b1-2)Man(a1-3)[Gal(b1-4)GlcNAc(b1-2)Man(a1-6)]Man(b1-4)GlcNAc(b1-4)GlcNAc
# Summary of the method: as §1
# [23] = target: Gal(b1-4)GlcNAc(b1-2)Man(a1-3)[Gal(b1-4)GlcNAc(b1-2)Man(a1-6)]Man(b1-4)GlcNAc(b1-4)[Fuc(a1-6)]GlcNAc
# Summary of the method: as §1
# [24] = target: Gal(b1-4)GlcNAc(b1-2)Man(a1-3)[Gal(b1-4)GlcNAc(b1-2)Man(a1-6)][Gal(b1-4)GlcNAc(b1-4)]Man(b1-4)GlcNAc(b1-4)[Fuc(a1-6)]GlcNAc
# Summary of the method: as §1
# [25] = target: Gal(b1-4)GlcNAc(b1-2)Man(a1-3)[Gal(b1-4)GlcNAc(b1-2)Man(a1-6)][GlcNAc(b1-4)]Man(b1-4)GlcNAc(b1-4)[Fuc(a1-6)]GlcNAc
# Summary of the method: as §1
# [26] = target: Gal(b1-4)GlcNAc(b1-2)Man(a1-3)[GlcNAc(b1-2)Man(a1-6)]Man(b1-4)GlcNAc(b1-4)GlcNAc
# Summary of the method: as §1
# [27] = target: Gal(b1-4)GlcNAc(b1-2)Man(a1-3)[GlcNAc(b1-4)][Gal(b1-4)GlcNAc(b1-2)Man(a1-6)]Man(b1-4)GlcNAc(b1-4)GlcNAc
# Summary of the method: as §1
# [28] = target: Gal(b1-4)GlcNAc(b1-2)Man(a1-3)[Man(a1-6)]Man(b1-4)GlcNAc(b1-4)GlcNAc
# Summary of the method: as §1
# [29] = target: Gal(b1-4)GlcNAc(b1-2)Man(a1-6)Man(b1-4)GlcNAc(b1-4)GlcNAc
# Summary of the method: as §1
# [30] = target: Gal(b1-4)GlcNAc(b1-2)Man(a1-6)[GlcNAc(b1-2)Man(a1-3)]Man(b1-4)GlcNAc(b1-4)GlcNAc
# Summary of the method: as §1
# [31] = target: Gal(b1-4)GlcNAc(b1-2)Man(a1-6)[Man(a1-3)]Man(b1-4)GlcNAc(b1-4)GlcNAc
# Summary of the method: as §1
# [32] = target: Gal(b1-4)GlcNAc(b1-2)[Gal(b1-4)GlcNAc(b1-4)]Man(a1-3)[Gal(b1-4)GlcNAc(b1-2)Man(a1-6)]Man(b1-4)GlcNAc(b1-4)GlcNAc
# Summary of the method: as §1
# [33] = target: Gal(b1-4)GlcNAc(b1-2)[Gal(b1-4)GlcNAc(b1-4)]Man(a1-3)[Gal(b1-4)GlcNAc(b1-2)[Gal(b1-4)GlcNAc(b1-6)]Man(a1-6)]Man(b1-4)GlcNAc(b1-4)GlcNAc
# Summary of the method: as §1
# [34] = target: Gal(b1-4)GlcNAc(b1-2)[Gal(b1-4)GlcNAc(b1-4)]Man(a1-3)[GlcNAc(b1-4)][Gal(b1-4)GlcNAc(b1-2)Man(a1-6)]Man(b1-4)GlcNAc(b1-4)GlcNAc
# Summary of the method: as §1
# [35] = target: Gal(b1-4)GlcNAc(b1-2)[Gal(b1-4)GlcNAc(b1-4)]Man(a1-3)[GlcNAc(b1-4)][Gal(b1-4)GlcNAc(b1-2)[Gal(b1-4)GlcNAc(b1-6)]Man(a1-6)]Man(b1-4)GlcNAc(b1-4)GlcNAc
# Summary of the method: as §1
# [36] = target: Gal(b1-4)GlcNAc(b1-2)[Gal(b1-4)GlcNAc(b1-6)]Man(a1-6)[Gal(b1-4)GlcNAc(b1-2)Man(a1-3)]Man(b1-4)GlcNAc(b1-4)GlcNAc
# Summary of the method: as §1
# [37] = target: Gal(b1-4)GlcNAc(b1-2)[Gal(b1-4)GlcNAc(b1-6)]Man(a1-6)[Gal(b1-4)GlcNAc(b1-2)Man(a1-3)]Man(b1-4)GlcNAc(b1-4)[Fuc(a1-6)]GlcNAc
# Summary of the method: as §1
# [38] = target: Gal(b1-4)GlcNAc(b1-2)[Gal(b1-4)GlcNAc(b1-6)]Man(a1-6)[GlcNAc(b1-4)][Gal(b1-4)GlcNAc(b1-2)Man(a1-3)]Man(b1-4)GlcNAc(b1-4)GlcNAc
# Summary of the method: as §1
# [39] = target: Gal(b1-4)GlcNAc(b1-2)[Gal(b1-4)GlcNAc(b1-6)]Man(a1-6)[GlcNAc(b1-4)][Gal(b1-4)GlcNAc(b1-2)[Gal(b1-4)GlcNAc(b1-4)]Man(a1-3)]Man(b1-4)GlcNAc(b1-4)[Fuc(a1-6)]GlcNAc
# Summary of the method: as §1
# [40] = target: Gal(b1-4)GlcNAc(b1-3)Gal(b1-3)GalNAc
# Summary of the method: as §1
# [41] = target: Gal(b1-4)GlcNAc(b1-3)Gal(b1-3)GlcNAc
# Summary of the method: as §1
# [42] = target: Gal(b1-4)GlcNAc(b1-3)Gal(b1-4)Glc
# Summary of the method: as §1
# [43] = target: Gal(b1-4)GlcNAc(b1-3)Gal(b1-4)GlcNAc
# Summary of the method: as §1
# [44] = target: Gal(b1-4)GlcNAc(b1-3)Gal(b1-4)GlcNAc(b1-2)Man(a1-3)[Gal(b1-4)GlcNAc(b1-3)Gal(b1-4)GlcNAc(b1-2)Man(a1-6)]Man(b1-4)GlcNAc(b1-4)GlcNAc
# Summary of the method: as §1
# [45] = target: Gal(b1-4)GlcNAc(b1-3)Gal(b1-4)GlcNAc(b1-2)Man(a1-3)[Gal(b1-4)GlcNAc(b1-3)Gal(b1-4)GlcNAc(b1-2)Man(a1-6)]Man(b1-4)GlcNAc(b1-4)[Fuc(a1-6)]GlcNAc
# Summary of the method: as §1
binder,measurement,setting,value
"CBM13 2a (Mycobacterium tuberculosum), P64849 (protein) DGPVQLKSRLGDVCLDAPSGSWFSPLVINPCNGTDFQRWNLTDDRQVESVAFPGECVNIGNALWARLQPCVNWISQHWTVQPDGLVKSDLDACLTVLGGPDPGTWVSTRWCDPNAPDQQWDSVPLEHHHHHH",glycan array binding signal (z-score),[1],-0.059
same,glycan array binding signal (z-score),[2],-0.163
same,glycan array binding signal (z-score),[3],0.42
same,glycan array binding signal (z-score),[4],0.154
same,glycan array binding signal (z-score),[5],-0.136
same,glycan array binding signal (z-score),[6],-0.309
same,glycan array binding signal (z-score),[7],-0.184
same,glycan array binding signal (z-score),[8],-0.141
same,glycan array binding signal (z-score),[9],-0.225
same,glycan array binding signal (z-score),[10],-0.099
same,glycan array binding signal (z-score),[11],-0.184
same,glycan array binding signal (z-score),[12],-0.216
same,glycan array binding signal (z-score),[13],-0.172
same,glycan array binding signal (z-score),[14],-0.351
same,glycan array binding signal (z-score),[15],-0.335
same,glycan array binding signal (z-score),[16],-0.146
same,glycan array binding signal (z-score),[17],-0.217
same,glycan array binding signal (z-score),[18],-0.286
same,glycan array binding signal (z-score),[19],-0.249
same,glycan array binding signal (z-score),[20],-0.147
same,glycan array binding signal (z-score),[21],-0.247
same,glycan array binding signal (z-score),[22],-0.247
same,glycan array binding signal (z-score),[23],0.207
same,glycan array binding signal (z-score),[24],-0.386
same,glycan array binding signal (z-score),[25],-0.294
same,glycan array binding signal (z-score),[26],-0.22
same,glycan array binding signal (z-score),[27],-0.18
same,glycan array binding signal (z-score),[28],-0.271
same,glycan array binding signal (z-score),[29],-0.216
same,glycan array binding signal (z-score),[30],-0.286
same,glycan array binding signal (z-score),[31],-0.262
same,glycan array binding signal (z-score),[32],-0.249
same,glycan array binding signal (z-score),[33],-0.26
same,glycan array binding signal (z-score),[34],-0.229
same,glycan array binding signal (z-score),[35],-0.194
same,glycan array binding signal (z-score),[36],0.02
same,glycan array binding signal (z-score),[37],-0.203
same,glycan array binding signal (z-score),[38],-0.182
same,glycan array binding signal (z-score),[39],-0.113
same,glycan array binding signal (z-score),[40],-0.207
same,glycan array binding signal (z-score),[41],-0.187
same,glycan array binding signal (z-score),[42],-0.2
same,glycan array binding signal (z-score),[43],-0.072
same,glycan array binding signal (z-score),[44],3.82
same,glycan array binding signal (z-score),[45],0.067
